# Assay results: the supplement of paper PMC8728848
# This is one part of the list.
# B1: TbCVNHOa (Tuber borchii), Q5MK11 (protein)
# chain: GSHIGPYMSYADSSRNAVLTNGGRTLRAECRNADGNWVTSELDLDTCIGNPNGFLGWGMQNFSHSSEDIKLEEGGRKLTCRPKTVDGGFRERQGIDLNRIQNVNGRLVFQ
# How the values were obtained:
# Assay in all cases: glycan array binding signal (z-score within array); higher = stronger binding
# Conditions in all cases: glycan notation: IUPAC condensed, linker removed
# [1] = biological target: Gal6S(b1-4)Glc
# Procedure, shortened: (§1)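 Arrays were curated from the Consortium for Functional Glycomics database, 3228 in total, and kept only where the protein sequence was available. Binding is expressed as a within-array Z-score. This score was averaged across arrays of the same protein sequence at different concentrations or buffers and across linkers, and negative values can be read as non-binding.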
# [2] = biological target: Gal6S(b1-4)Glc6S
# Procedure, shortened: as §1
# [3] = biological target: Gal6S(b1-4)GlcNAc
# Procedure, shortened: as §1
# [4] = biological target: GalNAc(a1-3)Gal
# Procedure, shortened: as §1
# [5] = biological target: GalNAc(a1-3)GalNAc
# Procedure, shortened: as §1
# [6] = biological target: GalNAc(b1-3)Gal(a1-4)Gal(b1-4)GlcNAc
# Procedure, shortened: as §1
# [7] = biological target: GalNAc(b1-4)GlcNAc
# Procedure, shortened: as §1
# [8] = biological target: Glc(a1-4)Glc
# Procedure, shortened: as §1
# [9] = biological target: Glc(a1-6)Glc(a1-6)Glc
# Procedure, shortened: as §1
# [10] = biological target: Glc(b1-4)Glc
# Procedure, shortened: as §1
# [11] = biological target: Glc(b1-6)Glc
# Procedure, shortened: as §1
# [12] = biological target: GlcA(b1-3)Gal
# Procedure, shortened: as §1
# [13] = biological target: GlcA(b1-6)Gal
# Procedure, shortened: as §1
# [14] = biological target: GlcNAc(a1-3)Gal(b1-4)GlcNAc
# Procedure, shortened: as §1
# [15] = biological target: GlcNAc(a1-6)Gal(b1-4)GlcNAc
# Procedure, shortened: as §1
# [16] = biological target: GlcNAc(b1-2)Gal(b1-3)GlcNAc
# Procedure, shortened: as §1
# [17] = biological target: GlcNAc(b1-2)Man(a1-3)[GlcNAc(b1-2)Man(a1-6)]Man(b1-4)GlcNAc(b1-4)GlcNAc
# Procedure, shortened: as §1
# [18] = biological target: GlcNAc(b1-3)Gal
# Procedure, shortened: as §1
# [19] = biological target: GlcNAc(b1-3)Gal(b1-3)GalNAc
# Procedure, shortened: as §1
# [20] = biological target: GlcNAc(b1-3)Gal(b1-4)Glc
# Procedure, shortened: as §1
# [21] = biological target: GlcNAc(b1-3)Gal(b1-4)GlcNAc
# Procedure, shortened: as §1
# [22] = biological target: GlcNAc(b1-3)Gal(b1-4)GlcNAc(b1-3)Gal(b1-4)GlcNAc
# Procedure, shortened: as §1
# [23] = biological target: GlcNAc(b1-3)GalNAc
# Procedure, shortened: as §1
# [24] = biological target: GlcNAc(b1-3)[GlcNAc(b1-4)][GlcNAc(b1-6)]GlcNAc
# Procedure, shortened: as §1
# [25] = biological target: GlcNAc(b1-3)[GlcNAc(b1-6)]Gal(b1-4)GlcNAc
# Procedure, shortened: as §1
# [26] = biological target: GlcNAc(b1-3)[GlcNAc(b1-6)]GlcNAc
# Procedure, shortened: as §1
# [27] = biological target: GlcNAc(b1-4)Gal(b1-4)GlcNAc
# Procedure, shortened: as §1
# [28] = biological target: GlcNAc(b1-4)GlcNAc(b1-4)GlcNAc
# Procedure, shortened: as §1
# [29] = biological target: GlcNAc(b1-4)GlcNAc(b1-4)GlcNAc(b1-4)GlcNAc(b1-4)GlcNAc
# Procedure, shortened: as §1
# [30] = biological target: GlcNAc(b1-4)GlcNAc(b1-4)GlcNAc(b1-4)GlcNAc(b1-4)GlcNAc(b1-4)GlcNAc
# Procedure, shortened: as §1
# [31] = biological target: GlcNAc(b1-4)[GlcNAc(b1-6)]GalNAc
# Procedure, shortened: as §1
# [32] = biological target: GlcNAc(b1-6)Gal(b1-4)GlcNAc
# Procedure, shortened: as §1
# [33] = biological target: GlcNAc(b1-6)GalNAc
# Procedure, shortened: as §1
# [34] = biological target: Kdn(a2-3)Gal(b1-3)GlcNAc
# Procedure, shortened: as §1
# [35] = biological target: Kdn(a2-3)Gal(b1-4)GlcNAc
# Procedure, shortened: as §1
# [36] = biological target: Man(a1-2)Man(a1-2)Man(a1-3)Man
# Procedure, shortened: as §1
# [37] = biological target: Man(a1-2)Man(a1-2)Man(a1-3)[Man(a1-2)Man(a1-3)[Man(a1-2)Man(a1-6)]Man(a1-6)]Man(b1-4)GlcNAc(b1-4)GlcNAc
# Procedure, shortened: as §1
# [38] = biological target: Man(a1-2)Man(a1-2)Man(a1-3)[Man(a1-2)Man(a1-6)[Man(a1-3)]Man(a1-6)]Man(b1-4)GlcNAc(b1-4)GlcNAc
# Procedure, shortened: as §1
# [39] = biological target: Man(a1-2)Man(a1-2)Man(a1-6)[Man(a1-3)]Man
# Procedure, shortened: as §1
# [40] = biological target: Man(a1-2)Man(a1-3)Man
# Procedure, shortened: as §1
# [41] = biological target: Man(a1-2)Man(a1-3)[Man(a1-2)Man(a1-6)]Man
# Procedure, shortened: as §1
# [42] = biological target: Man(a1-2)Man(a1-3)[Man(a1-3)[Man(a1-6)]Man(a1-6)]Man(b1-4)GlcNAc(b1-4)GlcNAc
# Procedure, shortened: as §1
# [43] = biological target: Man(a1-2)Man(a1-3)[Man(a1-6)]Man(a1-6)[Man(a1-2)Man(a1-3)]Man(b1-4)GlcNAc(b1-4)GlcNAc
# Procedure, shortened: as §1
# [44] = biological target: Man(a1-3)[Man(a1-6)]Man
# Procedure, shortened: as §1
# [45] = biological target: Man(a1-3)[Man(a1-6)]Man(a1-6)[Man(a1-3)]Man(b1-4)GlcNAc(b1-4)GlcNAc
# Procedure, shortened: as §1
# [46] = biological target: Man(a1-3)[Man(a1-6)]Man(b1-4)GlcNAc(b1-4)GlcNAc
# Procedure, shortened: as §1
# [47] = biological target: Man(b1-4)GlcNAc
# Procedure, shortened: as §1
# [48] = biological target: Neu5Ac(a2-3)Gal
# Procedure, shortened: as §1
# [49] = biological target: Neu5Ac(a2-3)Gal(b1-3)GalNAc
# Procedure, shortened: as §1
binder,measurement,setting,value
B1,glycan array binding signal (z-score),[1],-0.213
same,glycan array binding signal (z-score),[2],-0.246
same,glycan array binding signal (z-score),[3],-0.177
same,glycan array binding signal (z-score),[4],0.011
same,glycan array binding signal (z-score),[5],-0.274
same,glycan array binding signal (z-score),[6],-0.155
same,glycan array binding signal (z-score),[7],-0.239
same,glycan array binding signal (z-score),[8],-0.256
same,glycan array binding signal (z-score),[9],0.079
same,glycan array binding signal (z-score),[10],0.33
same,glycan array binding signal (z-score),[11],1.84
same,glycan array binding signal (z-score),[12],-0.21
same,glycan array binding signal (z-score),[13],-0.243
same,glycan array binding signal (z-score),[14],-0.293
same,glycan array binding signal (z-score),[15],-0.292
same,glycan array binding signal (z-score),[16],-0.293
same,glycan array binding signal (z-score),[17],-0.25
same,glycan array binding signal (z-score),[18],-0.283
same,glycan array binding signal (z-score),[19],-0.222
same,glycan array binding signal (z-score),[20],0.192
same,glycan array binding signal (z-score),[21],-0.152
same,glycan array binding signal (z-score),[22],-0.288
same,glycan array binding signal (z-score),[23],-0.292
same,glycan array binding signal (z-score),[24],-0.186
same,glycan array binding signal (z-score),[25],-0.228
same,glycan array binding signal (z-score),[26],-0.255
same,glycan array binding signal (z-score),[27],-0.168
same,glycan array binding signal (z-score),[28],0.018
same,glycan array binding signal (z-score),[29],-0.034
same,glycan array binding signal (z-score),[30],-0.189
same,glycan array binding signal (z-score),[31],-0.286
same,glycan array binding signal (z-score),[32],-0.247
same,glycan array binding signal (z-score),[33],-0.246
same,glycan array binding signal (z-score),[34],-0.227
same,glycan array binding signal (z-score),[35],-0.281
same,glycan array binding signal (z-score),[36],3.86
same,glycan array binding signal (z-score),[37],-0.196
same,glycan array binding signal (z-score),[38],-0.234
same,glycan array binding signal (z-score),[39],0.342
same,glycan array binding signal (z-score),[40],-0.199
same,glycan array binding signal (z-score),[41],-0.221
same,glycan array binding signal (z-score),[42],-0.106
same,glycan array binding signal (z-score),[43],-0.287
same,glycan array binding signal (z-score),[44],-0.27
same,glycan array binding signal (z-score),[45],-0.255
same,glycan array binding signal (z-score),[46],1.7
same,glycan array binding signal (z-score),[47],-0.29
same,glycan array binding signal (z-score),[48],-0.27
same,glycan array binding signal (z-score),[49],-0.289
